Laboratory results: PubChem BioAssay AID588591 (National Center for Advancing Translational Sciences (NCATS), 2011)
The campaign covered roughly 390,000 compounds. About 4,700 (1.2%) were called active. This list was built around the results that the source calls inconclusive (neither active nor inactive); the mix of calls is not that of the screen. The call rests on the fitted dose curve; in most records, active means well fitted inhibition curve with a large enough effect; inconclusive means small, poorly fitted or top-dose-only effect, or another doubt; inactive means no such curve, though single readings can be large or run the other way. Potencies of inconclusive entries are doubtful fits and often do not repeat.

biological target: DNA polymerase eta (Homo sapiens) (UniProt Q9Y253); test: qHTS for Inhibitors of Polymerase Eta; settings: recombinant Pol eta, fluorescent DNA replication assay; series mostly up to 114 µM
In short: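 Pol eta at 10 nM preincubated with compounds 15 min at room temperature; reaction started with fluorescent substrate (50 nM final) and read kinetically at 0 and 10 min.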
Potency means the concentration at half of the fitted maximal effect; tags describe the fitted curve by direction and shape.

UniProt Q9Y253, sequence (Q9Y253 whole entry, looked up): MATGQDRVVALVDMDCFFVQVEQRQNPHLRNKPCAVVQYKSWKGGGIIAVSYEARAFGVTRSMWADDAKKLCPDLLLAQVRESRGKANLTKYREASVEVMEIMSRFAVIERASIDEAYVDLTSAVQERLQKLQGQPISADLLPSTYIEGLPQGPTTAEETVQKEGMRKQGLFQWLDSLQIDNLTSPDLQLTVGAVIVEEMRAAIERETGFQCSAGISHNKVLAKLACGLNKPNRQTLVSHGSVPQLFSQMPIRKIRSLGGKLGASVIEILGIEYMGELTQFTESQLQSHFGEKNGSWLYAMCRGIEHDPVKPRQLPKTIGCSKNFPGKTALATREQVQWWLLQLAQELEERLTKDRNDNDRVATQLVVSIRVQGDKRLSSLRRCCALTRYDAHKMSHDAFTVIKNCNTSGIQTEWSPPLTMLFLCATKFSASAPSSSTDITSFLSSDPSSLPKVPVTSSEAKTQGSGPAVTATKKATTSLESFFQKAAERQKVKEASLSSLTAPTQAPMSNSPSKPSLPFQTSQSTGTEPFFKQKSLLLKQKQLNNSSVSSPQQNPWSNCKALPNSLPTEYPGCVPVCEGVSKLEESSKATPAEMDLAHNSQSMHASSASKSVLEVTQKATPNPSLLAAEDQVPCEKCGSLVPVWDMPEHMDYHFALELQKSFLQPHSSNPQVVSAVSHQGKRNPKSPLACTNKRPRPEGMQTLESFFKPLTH

| Compound | Potency |
| --- | --- |
| CN(C)c1ccc(C(=O)/C=C/c2ccco2)cc1 | inconclusive: 17.8 µM [inhibitor, partial curve] |
| CCOc1ccc2nc(SCC(=O)Nc3ccc4[nH]c(=O)[nH]c4c3)[nH]c2c1 | inconclusive: 25.1 µM [inhibitor, single point] |
| CCOC(=O)CN1C(=O)S/C(=C\c2ccc(-c3ccc(C(=O)O)c(Cl)c3)o2)C1=O | active: 10 µM |
| COc1ccc(S(=O)(=O)Nc2cc3c(cc2NCc2ccccc2)n(C)c(=O)n3C)cc1 | inactive |
| CCOC(=O)CCc1ccc(NC(=O)/C=C/c2ccc([N+](=O)[O-])o2)cc1 | inconclusive: 31.6 µM [inhibitor, single point] |
| CCCCCCCCCCCNC(=O)c1ccoc1C | inconclusive: 15.8 µM [inhibitor, full curve] |
| O=c1[nH]c(/C=C\c2cccc(C(F)(F)F)c2)nc(O)c1[N+](=O)[O-] | inconclusive: 15.8 µM [inhibitor, full curve, poor fit] |
| O=C1NC(=O)C(=Cc2ccccc2[N+](=O)[O-])S1 | active: 89.1 µM |
| N=C1/C(=C/c2ccc(-c3cccc(C(=O)O)c3)o2)C(=O)N=C2SC=C(c3ccccc3)N12 | active: 3.16 µM |
| Cc1nc(-c2ccc(S(=O)(=O)N3CCN(c4ccc(F)cc4)CC3)cc2)co1 | inconclusive: 89.1 µM [inhibitor, partial curve] |
| CN(C)c1ccc(N=Nc2ccc(C(=O)O)cc2)cc1 | active: 3.55 µM |
| CCC12CN3CC(CC)(CN(C1)C3c1cc(Br)ccc1OC)C2=O (stereo not given) | inactive |
| Cc1csc2nc(COC(=O)CNC(=O)c3ccccc3Cl)cc(=O)n12 | inactive |
| Cc1ccc(C(=O)N(C)CC(=O)Nc2cccc(F)c2)cc1S(=O)(=O)N1CCCCC1 | inconclusive: 15.8 µM [inhibitor, partial curve] |
| CCc1ccc2c(c1)c(=O)c(S(=O)(=O)c1ccccc1)cn2CC(=O)Nc1ccc(OC)cc1 | inactive |
| Cc1nc2c(c(=O)n1CCC1=CCCCC1)c1nc3ccccc3nc1n2/N=C/c1ccco1 | inconclusive: 11.2 µM [inhibitor, partial curve, poor fit] |
| COc1cccc(N2CC(NC(=O)C3CC3)CC2=O)c1 (stereo not given) | inactive |
| O=C(NN1C(=O)/C(=C\c2ccc(O)c([N+](=O)[O-])c2)SC1=S)c1ccccc1Cl | inconclusive: 79.4 µM [inhibitor, partial curve, poor fit] |
| Cc1cccc(NC(=O)CCC(=O)c2cccs2)n1 | inconclusive: 17.8 µM [inhibitor, full curve, poor fit] |
| CCOc1ccc(N2CC(c3nc4ccccc4n3CCOc3ccc(CC)cc3)CC2=O)cc1 (stereo not given) | inconclusive: 79.4 µM [inhibitor, partial curve, poor fit] |
| C=C(C)CNC(=S)N/N=C/C1=CCC2CC1C2(C)C (stereo not given) | inconclusive: 89.1 µM [inhibitor, partial curve, poor fit] |
| COc1ccc(/C=C2/CCc3ccccc3C2=O)cc1OC | inactive |
| CC1CCN(C(=O)c2[nH]cnc2C(=O)NCC(=O)OCc2ccccc2)CC1 | inconclusive: 89.1 µM [inhibitor, partial curve, poor fit] |

| Compound | Potency |
| --- | --- |
| COc1ccc(NC(=O)CN2C(=O)C3(SCC(=O)N3c3cccc(OC)c3)c3ccccc32)cc1 (stereo not given) | inconclusive: 79.4 µM [inhibitor, partial curve, poor fit] |
| CCCC(=O)Nc1ccc(C(=O)/C=C/c2ccc(SC)cc2)cc1 | inconclusive: 2.24 µM [inhibitor, full curve, poor fit] |
| S=c1[nH]nc(-c2ccncc2)n1Cc1ccco1 | inactive |
| CCOC(=O)C1(C)C=C(Nc2ccc(C(=O)O)cc2)C(=O)N1c1ccc(C(=O)O)cc1 (stereo not given) | inconclusive: 79.4 µM [inhibitor, partial curve, poor fit] |
| CCc1ccc(NC(=O)NNC(=O)c2cc3ccccc3cc2O)cc1 | inactive |
| N=C1S/C(=C\c2ccc(-c3ccccc3C(=O)O)o2)C(=O)N1c1ccc2c(c1)OCO2 | active: 20 µM |
| O=C1/C(=C/c2ccccc2)CN(C(=O)CCN2CCOCC2)C/C1=C\c1ccccc1 | inconclusive: 22.4 µM [inhibitor, single point] |
| O=C(O)c1cc(NS(=O)(=O)c2ccc(NCc3ccccc3)c([N+](=O)[O-])c2)cc(C(=O)O)c1 | active: 15.8 µM |
| O=C(Nc1ccc(-c2cn3ccccc3n2)cc1)c1ccc(Cl)cc1 | inconclusive: 25.1 µM [inhibitor, single point] |
| COc1ccc(NC(=O)c2cnc[nH]2)cc1 | inactive |
| CC(=O)Nc1sc2c(c1-c1nc3ccccc3s1)CN(C(C)C)CC2 | inconclusive: 20 µM [inhibitor, full curve] |
| O=C(O)CSc1cc(NS(=O)(=O)c2ccc(Cl)cc2)c2ccccc2c1O | active: 20 µM |
| O=C(OCn1ncc(Br)c(Br)c1=O)c1ccccc1Cl | inconclusive: 12.6 µM [inhibitor, full curve, poor fit] |
| COc1ccc(/C=N/n2c(-c3ccccc3)n[nH]c2=S)cc1 | inactive |
| Cc1cc(C)n2nc(C(=O)Nc3ccc(S(=O)(=O)N4CCCCC4)cc3)nc2n1 | inconclusive: 39.8 µM [inhibitor, single point] |
| Cc1ccc(-c2cc(C(=O)N/N=C/c3ccoc3)c3ccccc3n2)cc1 | inactive |
| O=C(Nc1ccc2oc(-c3ccncc3)nc2c1)c1ccc([N+](=O)[O-])o1 | inconclusive: 10 µM [inhibitor, partial curve, poor fit] |
| N/C(=N\OC(=O)CCCc1ccccc1)c1ccccc1 | inactive |
| Cc1ccccc1Cn1cccc1/C=C1/C(=N)N2C=CSC2=NC1=O | inconclusive: 15.8 µM [inhibitor, partial curve, poor fit] |
| Cc1ccc(C(=O)Nc2ccc(F)cc2)o1 | inactive |
| O=C(N/C(=C/c1ccccc1)C(=O)N1CCCCC1)c1ccccc1 | inconclusive: 79.4 µM [inhibitor, partial curve, poor fit] |
| COc1ccc(-c2nc(-c3ccncc3)no2)cc1 | inconclusive: 39.8 µM [inhibitor, single point] |
